# About 120 (0.25%) of roughly 48,000 compounds were called active. Inconclusive results (about 4%) are left out. Calls come from the whole dose curve; as a rule, active = well fitted activation curve with a large enough effect; inconclusive = small, poorly fitted or top-dose-only effect, or another doubt; inactive = no such curve, though single readings can be large or run the other way. This is one part of the list.
# Experiment: Primary qHTS for Identification of Small Molecule Activators of Huntingtin-Antisense Promoter Activity; note: nearly all actives have a fitted effect of over 55% in size
# Details: HEK293 HTT-AS promoter firefly luciferase reporter, 24 h; series mostly up to 57.5 µM; activity change, positive = activation: at the top concentration
# Procedure, shortened: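 HEK293 cells carrying firefly luciferase reporters were seeded at 2,500 per well in Opti-MEM and cultured for 24 h. They were then treated with compounds at up to 57.5 uM final for 24 h at 37 degrees C before Dual-Glo luminescence readout.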
row,Structure (SMILES),"activity change, positive = activation"
1,Cc1ccc(NC(=O)Cn2cnc3c(oc4ccccc43)c2=O)cc1Cl,inactive: -10.8%
2,COc1ccc(NC(=O)CCCOc2cc(=O)n(C)c3ccccc23)c(OC)c1,inactive: 14.2%
3,CCCn1c2ccccc2c2cnn(CC(=O)NCCc3ccc(S(N)(=O)=O)cc3)c(=O)c21,inactive: -20.3%
4,Cn1c(NCc2cccc(Cl)c2)nc2ccccc21,inactive: -8.13%
5,COc1cc(C(=O)NCCc2sc(-c3ccc(C)cc3)nc2C)cc(OC)c1OC,inactive: -21.7%
6,CC1CCN(C(=O)Cn2cc(SCC(=O)NCc3ccc(F)cc3)c3ccccc32)CC1,inactive: -24.3%
7,CCCCc1ccc(C(=O)c2c(N)c(C(=O)Nc3cccc(OC)c3)c3ccccn23)cc1,inactive: 8.15%
8,Cc1nnc(N2C(=O)c3oc4ccccc4c(=O)c3C2c2cccc(OCCC(C)C)c2)s1 (stereo not drawn),"inactive: -9.86% [at 11.5 µM, percent change from vehicle, -100% = no light]"
9,COCCCNC(=O)c1c(NC(=O)Cc2coc3cc(C)ccc23)sc2c1CCCC2,inactive: -24.3%
10,COc1ccc(C(=O)/C=C/c2cn(CC(O)CN3CCCCCC3)c3ccccc23)cc1OC (stereo not drawn),inactive: -26.4%
11,Cc1ccc(C(=O)c2oc3ccccc3c2NC(=O)COc2ccccc2C)cc1,inactive: 2.89%
12,COc1ccc(NC(=O)CSc2nc3ccccc3nc2N2CCOCC2)c(OC)c1,inactive: -13.7%
13,Cc1ccc(-c2noc(-c3ccc(N4CCOCC4)c([N+](=O)[O-])c3)n2)cc1,inactive: -31.9%
14,Cc1ccccc1CN1C(=O)c2ccccc2S(=O)c2ccc(C(=O)N3CCOCC3)cc21 (stereo not drawn),inactive: -26.5%
15,Cn1c(=O)c2cc(C(=O)NCCCN3CCN(c4ccc(F)cc4)CC3)sc2c2ccccc21,inactive: -17.9%
16,COc1ccc(-c2nc3ccccc3o2)cc1NC(=O)COc1cc(C)cc(C)c1,inactive: 21.5%
17,Cc1oc2c(c1C(=O)Nc1ccc(OC(F)(F)F)cc1)C1=NCCN1C=N2,inactive: -10%
18,COc1ccc(NS(=O)(=O)c2cnc(N)nc2)cc1Cl,inactive: -19.7%
19,COc1ccc(NC(=O)CCS(=O)(=O)c2cc3c4c(c2)CCN4C(=O)CC3)c(OC)c1,inactive: -3.94%
20,COc1ccc(C(=O)c2c(N)c(C(=O)Nc3ccccc3Cl)c3ccccn23)cc1,inactive: -8%
21,O=C(COc1ccc2oc3c(c2c1)CCCC3)Nc1cccc(Br)c1,inactive: -9.01%
22,Cc1cc(=O)[nH]c2nnc(SCC(N)=O)n12,inactive: 5%
23,CCOC(=O)CSc1nc2sc3c(c2c(=O)n1Cc1ccccc1)CC(C(C)C)OC3 (stereo not drawn),inactive: -3.85%
24,CCC(C)NC(=O)CCCn1c(=O)c2cccn2c2ccccc21 (stereo not drawn),inactive: 12.4%

row,Structure (SMILES),"activity change, positive = activation"
1,CCC(C(=O)NC1CCCCC1)n1c(SCc2ccccc2F)nc2ccncc21 (stereo not drawn),inactive: -19.5%
2,COCCNC(=O)CN1C(=O)COc2ccc(S(=O)(=O)N3CCCCCC3)cc21,inactive: -4.59%
3,CCc1ccc(NC(=O)CSc2ccc(-c3sc(-c4ccccc4)nc3C)nn2)cc1,inactive: -1.27%
4,Cc1ccccc1C(=O)Nc1cccc(NC(=O)c2ccc(C(C)(C)C)cc2)c1,inactive: 10.9%
5,CCN(Cc1ccccc1)c1nc2c(S(=O)(=O)c3ccccc3)nnn2c2ccc(Cl)cc12,inactive: -22.7%
6,Cc1nn(C(C)C(=O)NCCc2ccccc2)c(=O)c2c1sc1ccccc12 (stereo not drawn),inactive: -30.5%
7,Cc1ccccc1CNC(=O)CN1C(=O)CCCc2ccccc21,inactive: -5.48%
8,N[C@H](Cc1c[nH]c2ccccc12)C(=O)O,inactive: 0.171%
9,COc1ccc(CCNC(=O)CCCn2c(=O)c3ccccc3n(CC(=O)Nc3ccccc3C)c2=O)cc1OC,inactive: -11.8%
10,Cc1ccc(C2CC(=O)N(Cc3ccc(F)cc3)c3c2c(C)nn3-c2nc(C)cc(C)n2)cc1 (stereo not drawn),inactive: -16.7%
11,COc1ccc(Cn2c(SCC(=O)N3CCN(c4ccc(F)cc4)CC3)nc3ccccc32)cc1,inactive: -28.5%
12,O=C(CN1CCN(Cc2ccc(F)cc2)C1=O)NCc1ccc(F)cc1,inactive: -5.34%
13,O=C(COc1ccccc1)N(Cc1cccnc1)c1nc2c(F)cc(F)cc2s1,inactive: -4.09%
14,Cc1sc(C2C(C#N)=C(N)N(c3ccc(Cl)cc3)C3=C2C(=O)CCC3)cc1CN1CCOCC1 (stereo not drawn),inactive: -11.4%
15,CC1CCN(S(=O)(=O)c2ccc3c(c2)N(CC(=O)NCCCOC(C)C)C(=O)CO3)CC1,inactive: -16.7%
16,COCCNC(=O)Cn1c(-c2cccs2)cc2cc(Cl)ccc21,inactive: -36.2%
17,CCc1ccccc1NC(=O)CN(c1ccccc1OC)S(=O)(=O)c1ccc(C)cc1,inactive: -34.6%
18,Cc1ccsc1CN(C(=O)COc1ccccc1Cl)C1CCS(=O)(=O)C1 (stereo not drawn),inactive: -9.8%
19,N#Cc1nc(-c2ccc(COc3ccc(Cl)cc3)o2)oc1N1CCCCC1,inactive: -23.6%
20,COc1ccccc1N1CCN(c2nc3c(S(=O)(=O)c4ccccc4)nnn3c3ccc(Cl)cc23)CC1,inactive: 5.27%
21,CCOC(=O)c1scc(-c2ccccc2)c1S(=O)(=O)Nc1ccccc1OC,inactive: -35.8%
22,COc1ccc(CNS(=O)(=O)c2ccc(C(=O)N(C)C)s2)cc1,inactive: -8.23%
23,O=C1c2[nH]nc(-c3ccccc3O)c2C(c2cccc(OCc3ccccc3)c2)N1CCCO (stereo not drawn),inactive: -43.9%
24,Fc1ccc(N2CCN(Cc3nnc(-c4ccccc4Cl)o3)CC2)cc1,inactive: -24.7%

# Reference: PubChem BioAssay AID1508624 (National Center for Advancing Translational Sciences (NCATS), 2021)
